Experimental data published in publication PMC9911399, “Two distinct binding modes provide the RNA-binding protein RbFox with extraordinary sequence specificity”.
Residue numbers refer to the chain shown, from its start. Some of the results follow.

T1: RBFOX1 RRM RbFoxmut (Fox-RRM*) (Homo sapiens, UniProt Q9NWB1 109-208, R118D;E147R;N151S;E152T)
T1 sequence: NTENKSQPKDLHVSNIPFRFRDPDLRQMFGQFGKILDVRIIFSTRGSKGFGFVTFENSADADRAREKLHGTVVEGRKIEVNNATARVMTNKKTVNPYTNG

B1: AGCAGAC (DNA:RNA)
RNA: GGGAGACCGGAAUUCAGAUUGUCCAGCAGACUUAAAUCCCGUCGUAGCCACCA
DNA 1: CAATCTGAATTCCGGTCTCCC
DNA 2: TGGTGGCTACGACGGGATT
B2: GGCAGAA (DNA:RNA)
RNA: B1 RNA with A25G, C31A
DNA 1: CAATCTGAATTCCGGTCTCCC
DNA 2: TGGTGGCTACGACGGGATT
B3: GAGCCCG (DNA:RNA)
RNA: GGGAGACCGGAAUUCAGAUUGUCCGAGCCCGUUAAAUCCCGUCGUAGCCACCA
DNA 1: CAATCTGAATTCCGGTCTCCC
DNA 2: TGGTGGCTACGACGGGATT
B4: AAGUGCC (DNA:RNA)
RNA: B1 RNA with G26A, C27G, A28U, A30C
DNA 1: CAATCTGAATTCCGGTCTCCC
DNA 2: TGGTGGCTACGACGGGATT
B5: UACUCGG (DNA:RNA)
RNA: B3 RNA with G25U, G27C, C28U, C30G
DNA 1: CAATCTGAATTCCGGTCTCCC
DNA 2: TGGTGGCTACGACGGGATT
B6: GCAUGUU (DNA:RNA)
RNA: B1 RNA with A25G, G26C, C27A, A28U, A30U, C31U
DNA 1: CAATCTGAATTCCGGTCTCCC
DNA 2: TGGTGGCTACGACGGGATT
B7: UCAAGAU (DNA:RNA)
RNA: B1 RNA with A25U, G26C, C27A, C31U
DNA 1: CAATCTGAATTCCGGTCTCCC
DNA 2: TGGTGGCTACGACGGGATT
B8: CUCAACA (DNA:RNA)
RNA: B1 RNA with A25C, G26U, G29A, A30C, C31A
DNA 1: CAATCTGAATTCCGGTCTCCC
DNA 2: TGGTGGCTACGACGGGATT
B9: GUAGGGG (DNA:RNA)
RNA: B3 RNA with A26U, G27A, C28G, C29G, C30G
DNA 1: CAATCTGAATTCCGGTCTCCC
DNA 2: TGGTGGCTACGACGGGATT
B10: UGUCUCG (DNA:RNA)
RNA: B3 RNA with G25U, A26G, G27U, C29U
DNA 1: CAATCTGAATTCCGGTCTCCC
DNA 2: TGGTGGCTACGACGGGATT
B11: ACAUAAC (DNA:RNA)
RNA: B1 RNA with G26C, C27A, A28U, G29A
DNA 1: CAATCTGAATTCCGGTCTCCC
DNA 2: TGGTGGCTACGACGGGATT
B12: CUUCCCU (DNA:RNA)
RNA: B3 RNA with G25C, A26U, G27U, G31U
DNA 1: CAATCTGAATTCCGGTCTCCC
DNA 2: TGGTGGCTACGACGGGATT
B13: CUAGAUG (DNA:RNA)
RNA: B3 RNA with G25C, A26U, G27A, C28G, C29A, C30U
DNA 1: CAATCTGAATTCCGGTCTCCC
DNA 2: TGGTGGCTACGACGGGATT
B14: GACUAAU (DNA:RNA)
RNA: B1 RNA with A25G, G26A, A28U, G29A, C31U
DNA 1: CAATCTGAATTCCGGTCTCCC
DNA 2: TGGTGGCTACGACGGGATT
B15: CUCCCCA (DNA:RNA)
RNA: B3 RNA with G25C, A26U, G27C, G31A
DNA 1: CAATCTGAATTCCGGTCTCCC
DNA 2: TGGTGGCTACGACGGGATT
B16: CCUGUCA (DNA:RNA)
RNA: B3 RNA with G25C, A26C, G27U, C28G, C29U, G31A
DNA 1: CAATCTGAATTCCGGTCTCCC
DNA 2: TGGTGGCTACGACGGGATT
B17: UUGUGUC (DNA:RNA)
RNA: B1 RNA with A25U, G26U, C27G, A28U, A30U
DNA 1: CAATCTGAATTCCGGTCTCCC
DNA 2: TGGTGGCTACGACGGGATT
B18: CAUUGCA (DNA:RNA)
RNA: B3 RNA with G25C, G27U, C28U, C29G, G31A
DNA 1: CAATCTGAATTCCGGTCTCCC
DNA 2: TGGTGGCTACGACGGGATT
B19: CGUAGGC (DNA:RNA)
RNA: B1 RNA with A25C, C27U, A30G
DNA 1: CAATCTGAATTCCGGTCTCCC
DNA 2: TGGTGGCTACGACGGGATT
B20: CUACUCC (DNA:RNA)
RNA: B3 RNA with G25C, A26U, G27A, C29U, G31C
DNA 1: CAATCTGAATTCCGGTCTCCC
DNA 2: TGGTGGCTACGACGGGATT

Each binder was assayed against T1, RBFOX1 RRM RbFoxmut (Fox-RRM*) (assay: EMSA; HiTS-Eq, 1 nM pool, 10 min; buffer printed only for the single-RNA assays: 10 mM Tris pH 7.5, 150 mM NaCl, 3.4 mM EDTA, 0.001% NP-40, 30 C). Settings: tags: His6 N-terminal (pET28a); label: 5' 32P.
Summary of the method: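 These values rest on relative association constants, computed from read-count changes of each RNA species versus the control reaction and normalised to the cognate motif. Reads came from free RNA recovered by 8% native PAGE after purified RbFox RRM (wild type or mutant) at increasing concentrations was equilibrated for 10 min in 50 µL with 1 nM of a 5′-radiolabelled pool with 7 randomized nucleotides and DNA-annealed flanks.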

Binder	binding signal
B1	0.0855 KA relative to UGCAUGU
B2	0.0784 KA relative to UGCAUGU
B3	0.0755 KA relative to UGCAUGU
B4	0.246 KA relative to UGCAUGU
B5	0.0779 KA relative to UGCAUGU
B6	0.776 KA relative to UGCAUGU
B7	0.0694 KA relative to UGCAUGU
B8	0.0885 KA relative to UGCAUGU
B9	0.0798 KA relative to UGCAUGU
B10	0.32 KA relative to UGCAUGU
B11	0.0862 KA relative to UGCAUGU
B12	0.0567 KA relative to UGCAUGU
B13	0.139 KA relative to UGCAUGU
B14	0.0983 KA relative to UGCAUGU
B15	0.0634 KA relative to UGCAUGU
B16	0.0946 KA relative to UGCAUGU
B17	0.357 KA relative to UGCAUGU
B18	0.292 KA relative to UGCAUGU
B19	0.0943 KA relative to UGCAUGU
B20	0.0575 KA relative to UGCAUGU
